PubChem BioAssay AID504333 (National Center for Advancing Translational Sciences (NCATS), 2011)
About 16,000 (4.4%) of roughly 360,000 compounds were called active. The inconclusive results got no clear call from the source; some entries with a clear call stand among them for comparison. Calls follow the shape of the dose curve; as a rule, active = well fitted inhibition curve with a large enough effect; inconclusive = small, poorly fitted or top-dose-only effect; inactive = no such curve, though single readings can be large or run the other way. A potency beside an inconclusive call is a rough fit, not a confirmed value. Some compounds were tested as several samples or in several runs, with calls that do not always agree.

Target: Bromodomain adjacent to zinc finger domain protein 2B (Homo sapiens) (UniProt Q9UIF8)
Assay: qHTS Assay for Inhibitors of BAZ2B; also: nearly all actives have a fitted effect of over 60% in size
Conditions: AlphaScreen BAZ2B-H3K14Ac peptide displacement; series mostly up to 114 µM
Procedure, shortened: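 Multi-concentration screen (max 110 uM) measuring displacement of acetylated histone H3 peptide from BAZ2B by AlphaScreen, using 50 nM protein, 50 nM peptide and 10 ug/mL streptavidin donor plus Ni-chelate acceptor beads.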
Potency is read from the fitted curve at half-maximal effect; tags tell the direction and shape of the fitted curve.

Sequence of UniProt Q9UIF8 (Q9UIF8 whole entry, looked up, the tested form may be a part): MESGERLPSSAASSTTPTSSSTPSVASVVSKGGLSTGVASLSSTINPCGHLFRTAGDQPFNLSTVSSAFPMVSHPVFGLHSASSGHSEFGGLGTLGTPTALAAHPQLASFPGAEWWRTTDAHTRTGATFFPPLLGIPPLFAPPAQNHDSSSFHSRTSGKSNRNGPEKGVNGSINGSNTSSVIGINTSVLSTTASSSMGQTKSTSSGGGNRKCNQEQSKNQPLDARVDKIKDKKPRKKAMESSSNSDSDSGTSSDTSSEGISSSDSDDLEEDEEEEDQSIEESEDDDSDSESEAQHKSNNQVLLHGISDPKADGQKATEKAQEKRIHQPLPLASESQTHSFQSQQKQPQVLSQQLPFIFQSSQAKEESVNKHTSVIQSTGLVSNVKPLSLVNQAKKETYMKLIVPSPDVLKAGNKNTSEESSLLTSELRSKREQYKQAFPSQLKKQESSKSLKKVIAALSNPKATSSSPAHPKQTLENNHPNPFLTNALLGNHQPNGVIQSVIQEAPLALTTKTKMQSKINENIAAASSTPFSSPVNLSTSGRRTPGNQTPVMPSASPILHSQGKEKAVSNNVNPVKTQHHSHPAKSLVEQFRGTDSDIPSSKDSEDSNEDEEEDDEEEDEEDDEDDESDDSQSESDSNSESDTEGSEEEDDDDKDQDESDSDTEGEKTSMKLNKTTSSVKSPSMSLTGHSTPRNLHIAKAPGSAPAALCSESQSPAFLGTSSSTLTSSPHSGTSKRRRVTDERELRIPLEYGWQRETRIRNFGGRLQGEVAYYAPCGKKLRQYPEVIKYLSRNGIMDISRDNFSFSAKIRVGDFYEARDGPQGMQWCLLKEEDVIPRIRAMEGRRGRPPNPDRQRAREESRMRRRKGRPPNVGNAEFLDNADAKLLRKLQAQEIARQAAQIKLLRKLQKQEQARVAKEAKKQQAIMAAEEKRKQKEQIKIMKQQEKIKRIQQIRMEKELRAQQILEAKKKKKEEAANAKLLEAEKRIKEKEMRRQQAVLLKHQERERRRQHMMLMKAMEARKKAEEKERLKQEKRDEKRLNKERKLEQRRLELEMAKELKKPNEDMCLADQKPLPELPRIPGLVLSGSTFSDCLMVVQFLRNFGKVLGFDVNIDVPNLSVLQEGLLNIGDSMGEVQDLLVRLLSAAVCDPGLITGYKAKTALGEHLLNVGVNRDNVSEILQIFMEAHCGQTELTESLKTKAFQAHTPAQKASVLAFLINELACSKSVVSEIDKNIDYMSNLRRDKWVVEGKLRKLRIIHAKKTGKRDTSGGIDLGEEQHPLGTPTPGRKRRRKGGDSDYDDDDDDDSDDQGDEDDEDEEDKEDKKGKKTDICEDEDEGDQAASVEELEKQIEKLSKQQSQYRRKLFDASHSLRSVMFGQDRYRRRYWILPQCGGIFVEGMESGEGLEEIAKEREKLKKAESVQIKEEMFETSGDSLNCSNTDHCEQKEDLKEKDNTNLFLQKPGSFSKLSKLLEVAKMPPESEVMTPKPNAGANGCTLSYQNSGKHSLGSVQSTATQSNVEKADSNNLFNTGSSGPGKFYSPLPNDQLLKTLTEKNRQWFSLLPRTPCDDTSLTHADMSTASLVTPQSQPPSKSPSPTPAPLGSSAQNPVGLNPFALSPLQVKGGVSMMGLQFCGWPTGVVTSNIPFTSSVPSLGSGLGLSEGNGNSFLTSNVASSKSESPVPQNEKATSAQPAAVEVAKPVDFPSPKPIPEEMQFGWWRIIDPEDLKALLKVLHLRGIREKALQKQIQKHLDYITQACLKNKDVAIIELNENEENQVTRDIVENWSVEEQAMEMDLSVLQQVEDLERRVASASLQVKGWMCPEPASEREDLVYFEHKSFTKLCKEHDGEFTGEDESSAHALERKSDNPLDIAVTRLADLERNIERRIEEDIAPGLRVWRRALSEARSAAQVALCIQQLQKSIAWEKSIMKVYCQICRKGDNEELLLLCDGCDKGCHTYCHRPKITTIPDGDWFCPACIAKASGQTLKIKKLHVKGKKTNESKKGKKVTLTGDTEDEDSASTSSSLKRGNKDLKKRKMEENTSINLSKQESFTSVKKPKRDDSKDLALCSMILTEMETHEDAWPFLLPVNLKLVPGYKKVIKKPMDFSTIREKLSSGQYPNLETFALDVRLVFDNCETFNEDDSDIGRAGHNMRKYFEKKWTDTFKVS

SMILES | Potency
CC(=O)c1cc(-c2ccccc2)n(CCC(=O)NC2CCCCC2)c1C | active: 50.1 µM
O=C(CSc1n[nH]c(-c2ccccc2)n1)Nc1ccc(N2CCOCC2)cc1 | inconclusive: 79.4 µM [inhibitor, single point]
Cc1ccc(C(=O)NCC(=O)OCC(=O)Nc2cc(S(=O)(=O)N3CCOCC3)ccc2C)cc1 | inactive
Cc1ccc(S(=O)(=O)N/N=C\c2ccc(Cl)c([N+](=O)[O-])c2)cc1 | inconclusive: 79.4 µM [inhibitor, single point]
COc1ccc2nc(NC(=O)C3COc4ccccc4O3)sc2c1 (stereo not drawn) | inactive
Cc1cccc(OCC(=O)N(Cc2ccc(N(C)C)cc2)Cc2ccco2)c1C | active: 10 µM
O=C(c1cccc(S(=O)(=O)N2CCc3ccccc3C2)c1)N1CCN(c2ccc(O)cc2)CC1 | inconclusive: 44.7 µM [inhibitor, partial curve]
CCOc1ccc(NC(=O)c2c(NCc3cccs3)sc3c2CCCCC3)cc1 | inconclusive: 22.4 µM [inhibitor, full curve, poor fit]
Cc1cc(C)c2sc(N(CCCN(C)C)C(=O)c3ccc(S(=O)(=O)N4CCCc5ccccc54)cc3)nc2c1 | active: 11.2 µM
CCOc1ccc(-c2cc(C(=O)N/N=C(\C)c3cccnc3)c3ccccc3n2)cc1 | inconclusive: 39.8 µM [inhibitor, partial curve]
Cc1cc(C)c2c(=O)n(CC(=O)Nc3cccc(Cl)c3C)sc2n1 | inconclusive: 89.1 µM [inhibitor, single point]
Nc1nnc(SCCOc2ccccc2)s1 | inactive
O=C(CSc1nc2ccccc2c(=O)[nH]1)Nc1ccc(C(=O)O)cc1 | inconclusive: 79.4 µM [inhibitor, partial curve]
CCCCNC(=O)CCSc1nc(-c2ccc3c(c2)OCO3)cc(C(F)(F)F)n1 | inactive
CC(C)(C)C1C/C(=C/c2ccco2)C(=O)/C(=C/c2ccco2)C1 (stereo not drawn) | active: 25.1 µM
COc1ccc(Nc2nc(NN)nc(C)c2[N+](=O)[O-])cc1 | inconclusive: 20 µM [inhibitor, full curve]
CCOC(=O)/C=C/C(=O)OCc1csc(CC(=O)Nc2ccccc2C)n1 | active: 50.1 µM
CCOc1ccc(NC(=O)CCC(=O)N2CCSc3ccccc32)cc1 | inconclusive: 79.4 µM [inhibitor, single point]
COc1c(C)cc(S(=O)(=O)NCCN2CCOCC2)c(C)c1C | inconclusive: 89.1 µM [inhibitor, single point]
Cc1onc(-c2c(F)cccc2Cl)c1C(=O)O/N=C(\N)c1ccc([N+](=O)[O-])o1 | inconclusive: 39.8 µM [inhibitor, partial curve]
CC/C(=C/c1ccccc1)c1cccc2[nH]c3c(OC)cccc3c12 | inconclusive: 79.4 µM [inhibitor, single point]
c1ccc(CN2CCC3(CC2)Nc2ccccc2CO3)cc1 | inactive

SMILES | Potency
O=C(Nc1ccon1)c1nc[nH]c1C(=O)N1CCc2ccccc2C1 | inconclusive: 5.01 µM [inhibitor, full curve, poor fit]
COc1ccccc1NCC(=O)c1ccc(C)c(C)c1 | inconclusive: 70.8 µM [inhibitor, single point]
CCCC(=O)Nc1nc2ccc3nc(C)sc3c2s1 | inconclusive: 89.1 µM [inhibitor, single point]
C#CCOCCOCCOCCNc1nc(N2CCN(C(=O)[C@H]([C@@H](C)CC)n3cc([C@@H](N)CC(C)C)nn3)CC2)nc(N2CCN(C(=O)[C@H]([C@@H](C)CC)n3cc([C@@H](N)CC(C)C)nn3)CC2)n1 | active: 79.4 µM
CCN1CCN(C(=O)c2sc3ncnc(N4CCc5ccccc5C4)c3c2C)CC1 | inconclusive: 79.4 µM [inhibitor, single point]
CCN1CCN(c2cc(C)c3cc(NC(=S)N(CC)CC)ccc3n2)CC1 | inconclusive: 70.8 µM [inhibitor, single point]
O=C(NC(=S)N1CCN(C2CCCCC2)CC1)c1ccccc1 | inactive
Cc1[nH]c2ccccc2c1C(c1ccncc1)N1CCN(c2ccccc2F)CC1 (stereo not drawn) | inconclusive: 39.8 µM [inhibitor, full curve]
Cn1c(C(=O)N2CCC(C(=O)N3CCN(c4ccccc4)CC3)CC2)cc2sccc21 | inconclusive: 70.8 µM [inhibitor, partial curve]
O=c1cc(CN2CCOCC2)c2cc(Cl)c(O)cc2o1 | inconclusive: 89.1 µM [inhibitor, single point]
COc1ccc(C2CC(=O)Oc3c(C(CCN4CCN(c5ccccc5)CC4)c4ccc(N(C)C)cc4)c(OC)cc(OC)c32)cc1 (stereo not drawn) | active: 4.47 µM
O=C(Nc1cc(Cl)ccc1N1CCOCC1)c1ccc(Br)o1 | inconclusive: 39.8 µM [inhibitor, partial curve]
COc1ccc(C(CNC(=O)C(=O)Nc2ccc3c(c2)OCCO3)N2CCN(C)CC2)cc1 (stereo not drawn) | inactive
O=c1c(Cc2c(F)cccc2Cl)c(O)ccn1CCc1c[nH]c2ccccc12 | inconclusive: 50.1 µM [inhibitor, partial curve]
Cc1ccc(Nc2nc(N/N=C\c3ccc4c(c3)OCO4)nc(N3CCOCC3)n2)cc1 | inconclusive: 28.2 µM [inhibitor, partial curve]
CCN1/C(=N\N)c2cccc3cccc1c23 | active: 7.94 µM
N#Cc1ccc(/C=C(\C(=O)C(=O)O)c2ccc3ccccc3n2)cc1 | active: 79.4 µM
CC(C)Oc1ccc(CNC(=O)c2cccc(NC(=O)c3nsc4ccccc34)c2)cc1 | inactive
C#CCOCCOCCOCCNc1nc(N2CCN(C(=O)[C@H]([C@@H](C)CC)n3cc([C@@H](N)CC(C)C)nn3)CC2)nc(N2CCN(C(=O)[C@H](Cc3ccc(O)cc3)n3cc([C@@H](N)CC(C)C)nn3)CC2)n1 | active: 50.1 µM
Cc1nnc(SCC(=O)Nc2sc3c(c2C(=O)c2ccccc2)CCCC3)s1 | inconclusive: 15.8 µM [inhibitor, full curve]
CCN1C(=O)/C(=C/C=C2/CCCN2C)OC1=S | inactive
